Paper PMC9600399
Results are given in words; binding and its absence hold for the method and conditions named. In cells and extracts the contact can be indirect. Some results given as binding are weak or reduced against the parent protein; the word gives no strength.

Sequences of proteins named here, by UniProt entry; tags and fusion partners are left off. A change or cut given only in a name is not applied to a line headed by its entry. Residues count along the entry.
UniProt P28066: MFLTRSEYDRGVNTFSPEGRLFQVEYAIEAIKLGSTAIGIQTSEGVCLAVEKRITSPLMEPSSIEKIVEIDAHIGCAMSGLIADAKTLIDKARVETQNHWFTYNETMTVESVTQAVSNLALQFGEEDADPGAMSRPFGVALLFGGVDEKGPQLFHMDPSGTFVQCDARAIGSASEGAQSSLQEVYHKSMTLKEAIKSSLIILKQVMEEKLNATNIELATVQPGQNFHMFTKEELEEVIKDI
GST–PSMA5 188-241: residues 188-241 of P28066
UniProt P01100: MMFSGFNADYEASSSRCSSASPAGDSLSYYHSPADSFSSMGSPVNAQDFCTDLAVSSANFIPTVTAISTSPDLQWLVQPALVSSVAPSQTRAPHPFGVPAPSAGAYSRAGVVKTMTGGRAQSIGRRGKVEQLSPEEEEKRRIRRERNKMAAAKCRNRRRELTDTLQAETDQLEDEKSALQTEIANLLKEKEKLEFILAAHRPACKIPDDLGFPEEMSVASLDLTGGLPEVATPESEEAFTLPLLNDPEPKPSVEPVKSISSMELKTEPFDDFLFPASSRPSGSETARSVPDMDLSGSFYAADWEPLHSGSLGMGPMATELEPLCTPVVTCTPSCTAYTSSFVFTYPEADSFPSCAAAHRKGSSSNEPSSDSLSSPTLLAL
UniProt P38936: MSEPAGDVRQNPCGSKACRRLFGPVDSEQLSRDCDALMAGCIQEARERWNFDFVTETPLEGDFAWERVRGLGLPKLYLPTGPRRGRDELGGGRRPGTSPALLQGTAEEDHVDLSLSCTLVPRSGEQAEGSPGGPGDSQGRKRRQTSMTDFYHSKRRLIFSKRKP

Assays:
[1] = biological target: GST–PSMA3 187–255 (UniProt P25788); assay: pull-down; recombinant GST proteins on glutathione agarose incubated with HEK293 lysate (overexpressing 6xmyc p21 or naive) for 16 h at 4 °C; six washes with NP40 buffer; elution with 10 mM glutathione; immunoblot; only the target purified
[2] = biological target: GST–PSMA5 188-241 (UniProt P28066); assay: as above
[3] = biological target: HA–PSMA3–FPC (UniProt P25788); assay: split reporter; BiFC in co-transfected cells with H2B–RFP, 48 h post-transfection; flow cytometry of at least 10,000 cells, BiFC signal normalised to RFP; fluorescence microscopy
[4] = biological target: PSMA5-3long (UniProt P28066); assay: as above
[5] = biological target: PSMA5-3short (UniProt P28066); assay: as above
[6] = biological target: PSMA5–FPC (UniProt P28066); assay: as above
[7] = biological target: PSMA3 Ct 187–255 fragment fused to Luc2 (UniProt P25788); assay: split reporter; split Gaussia luciferase (p21-Luc1, receptor-Luc2); bioluminescence of cell lysates with 20 μM coelenterazine, integrated over 10 s
[8] = biological target: full-length PSMA3 fused to Luc2 (UniProt P25788); assay: as above

## p53, endogenous (from UniProt P04637 1-393)
[1]
  binding: binds
[2]
  binding: no binding

## c-Fos, endogenous (from UniProt P01100 1-380)
[1]
  binding: binds
[2]
  binding: no binding

## 6xMyc-p21 FPN (from UniProt P38936 1-164)
[3]
  binding: binds
[4]
  binding: binds
[5]
  binding: binds
[6]
  binding: no binding

## p21 fused to Luc1 (from UniProt P38936 1-164)
[7]
  binding: binds
[8]
  binding: binds
